This note sets out measurements from publication PMC4336329 (PLoS ONE, 2015).

About 2,200 (0.71%) of roughly 310,000 compounds showed an effect of 50% or more. Effects have a minus sign here. Some of the results follow.

The target in this assay is human ether-à-go-go-related gene (hERG) potassium channel (human, UniProt Q12809). Description: primary screen, population patch clamp on CHO cells stably expressing hERG.
human ether-à-go-go-related gene (hERG) potassium channel, sequence (Q12809 whole entry, looked up): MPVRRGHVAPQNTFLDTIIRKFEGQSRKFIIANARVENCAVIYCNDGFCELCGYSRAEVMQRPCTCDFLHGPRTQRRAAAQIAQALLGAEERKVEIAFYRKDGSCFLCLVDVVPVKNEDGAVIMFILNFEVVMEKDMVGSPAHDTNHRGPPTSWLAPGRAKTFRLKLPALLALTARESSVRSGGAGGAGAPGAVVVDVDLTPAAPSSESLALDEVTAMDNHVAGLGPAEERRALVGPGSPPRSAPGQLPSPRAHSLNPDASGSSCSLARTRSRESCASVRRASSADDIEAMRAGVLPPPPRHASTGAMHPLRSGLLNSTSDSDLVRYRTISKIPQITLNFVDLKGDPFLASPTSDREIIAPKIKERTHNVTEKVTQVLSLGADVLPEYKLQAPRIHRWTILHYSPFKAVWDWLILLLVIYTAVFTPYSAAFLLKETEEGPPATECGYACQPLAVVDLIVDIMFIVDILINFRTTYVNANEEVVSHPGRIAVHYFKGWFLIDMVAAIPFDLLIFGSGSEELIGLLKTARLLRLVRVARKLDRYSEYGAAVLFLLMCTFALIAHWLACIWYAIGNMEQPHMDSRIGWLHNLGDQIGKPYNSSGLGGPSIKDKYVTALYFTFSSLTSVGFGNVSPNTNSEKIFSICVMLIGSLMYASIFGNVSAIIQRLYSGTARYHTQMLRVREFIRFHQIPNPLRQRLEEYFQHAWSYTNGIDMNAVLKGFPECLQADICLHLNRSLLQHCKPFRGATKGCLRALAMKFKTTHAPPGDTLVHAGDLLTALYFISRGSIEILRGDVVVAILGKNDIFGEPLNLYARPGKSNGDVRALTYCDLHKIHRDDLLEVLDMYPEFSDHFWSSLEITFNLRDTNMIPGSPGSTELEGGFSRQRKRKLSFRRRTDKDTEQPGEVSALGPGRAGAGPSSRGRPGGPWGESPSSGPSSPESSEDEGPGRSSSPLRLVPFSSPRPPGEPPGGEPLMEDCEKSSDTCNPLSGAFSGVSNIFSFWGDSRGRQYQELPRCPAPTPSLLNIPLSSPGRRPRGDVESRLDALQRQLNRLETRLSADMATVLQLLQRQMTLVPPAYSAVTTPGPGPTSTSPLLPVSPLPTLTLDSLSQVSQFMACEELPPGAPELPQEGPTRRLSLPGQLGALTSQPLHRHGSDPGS
Regarding `Cc1ccnc(NC2(C(F)(F)F)N=C(c3ccccc3)NC2=O)c1` (stereo not drawn), the “hERG current change (%, negative = inhibition) at 1uM” value turned out to be 10.2%.
As for `CCOC(=O)NC(=O)/C(C#N)=C\c1ccccc1`, the “hERG current change (%, negative = inhibition) at 1uM” value stood at 12.3%.
On to `Cc1cc(NC(=O)CCC(=O)N(CC(=O)NC2CCCC2)c2ccc(Cl)cc2)no1`, for which the “hERG current change (%, negative = inhibition) at 1uM” value is -5.62%.
The value for `CCn1nnc(NC(=O)c2ccc([N+](=O)[O-])o2)n1` was 8.58%.
On to `COc1ccc(OC)c(S(=O)(=O)Nc2ccc3c(c2)n(C)c(=O)n3C)c1`, for which the “hERG current change (%, negative = inhibition) at 1uM” value turned out to be 6.15%.
On to `O=S(=O)(c1ccc(Cl)cc1)c1nc(-c2ccccc2F)oc1NCCN1CCOCC1`, for which the “hERG current change (%, negative = inhibition) at 1uM” value is given as -0.205%.
For `CCOC(=O)c1cc2c(=O)n3ccccc3nc2n(C(C)C)c1=NC(=O)c1c(-c2ccccc2Cl)noc1C`, the “hERG current change (%, negative = inhibition) at 1uM” value worked out at 19.4%.
As for `C/C(=C\C#N)n1nc(C)cc1N`, the “hERG current change (%, negative = inhibition) at 1uM” value is 14.4%.
Next, `CC(C)(C)NC(=O)CSc1nc2cccnc2n1C1CCCCC1`: 8.34%; `CC/C(O)=C(\C#N)c1nnc2n1CCCCC2`: 11.6%.
For the molecule `CCCOc1ccc(C(=O)NNC(=O)c2cccc(S(=O)(=O)N3CCN(C(C)=O)CC3)c2)cc1OC`, the “hERG current change (%, negative = inhibition) at 1uM” value is listed as -5.72%.
Take `O=C1C2C3C=CC(C3)C2C(=O)N1/N=C/c1cn(Cc2ccccc2)c2ccccc12` (stereo not drawn): the “hERG current change (%, negative = inhibition) at 1uM” value was determined as 3.4%.
The value for `Nc1nnc(SCC(=O)c2cccc([N+](=O)[O-])c2)s1` was 1.05%.
For `Cc1ccc(CNC(=O)CCc2c(C)nc3ncnn3c2C)cc1`, the “hERG current change (%, negative = inhibition) at 1uM” value is on record as 5.5%.
Take `Cc1ccc(S(=O)(=O)N2CCN(S(=O)(=O)N3CCC(C)CC3)CC2)cc1C`: the “hERG current change (%, negative = inhibition) at 1uM” value stood at 12.3%.
For `CSCCCNC(=S)N1CCN(S(=O)(=O)c2cccc(C(F)(F)F)c2)CC1`, the “hERG current change (%, negative = inhibition) at 1uM” value was 8.66%.
Turning to `O=C(CCNC(=O)c1ccc(Br)cc1)Nc1cccc(S(=O)(=O)N2CCCCC2)c1`, the “hERG current change (%, negative = inhibition) at 1uM” value turned out to be 4.54%.
The value for `COC(=O)C1CCN(C(=O)COc2ccc(N(C)S(=O)(=O)c3ccc(C)cc3)cc2)CC1` was -2.93%; that for `CC(C)c1nnc(NC(=O)CCS(=O)(=O)Cc2ccccc2)s1` was 10.7%.
On to `O=C(N/N=C/c1ccccn1)C1CC1`, for which the “hERG current change (%, negative = inhibition) at 1uM” value is given as 1.69%.
With `COc1cc(SC)ccc1C(=O)NCCCOC(C)C`, the “hERG current change (%, negative = inhibition) at 1uM” value is on record as 8.43%.
Regarding `CCOc1ccc(NC(=O)CC2C(=O)NCCN2C(=O)Nc2ccccc2)cc1` (stereo not drawn), the “hERG current change (%, negative = inhibition) at 1uM” value came to 3.83%.
Regarding `Cc1cc(NC(=O)CSc2nnc(-c3ccncc3)n2N)ccc1Br`, the “hERG current change (%, negative = inhibition) at 1uM” value is given as 3.1%.
Take `Cc1ccc(-c2cc(C(=O)Nc3nccs3)c3ccccc3n2)c(C)c1`: the “hERG current change (%, negative = inhibition) at 1uM” value is listed as 13.5%.
With `Cc1ccc(C)c(S(=O)(=O)N2CCCOC2CNC(=O)C(=O)NCc2ccncc2)c1` (stereo not drawn), the “hERG current change (%, negative = inhibition) at 1uM” value was 9.48%.
On to `CCOC(=O)N1CCC(Nc2c(N3CCN(c4cc(Cl)ccc4C)CC3)c(=O)c2=O)CC1`, for which the “hERG current change (%, negative = inhibition) at 1uM” value is listed as -25.6%.
In the case of `CC(C)C[C@H](NC(=O)C1CC(=O)N(c2ccc3c(c2)OCO3)C1)C(=O)NC1CCCC1` (stereo partly drawn), the “hERG current change (%, negative = inhibition) at 1uM” value was 8.83%.
Turning to `CC(/C=C/c1ccccc1)=N\NC(=O)c1ccncc1`, the “hERG current change (%, negative = inhibition) at 1uM” value is listed as -1.6%.
Next, `O=C(COC(=O)c1ccc([N+](=O)[O-])s1)Nc1ccc(F)cc1`: 2.01%; `CCN(CC)CCNC(=O)c1ccc(NC(=O)c2ccc(COc3ccccc3)cc2)cc1`: 16.8%.
As to `NC(=O)c1ccccc1NS(=O)(=O)c1ccc2c(c1)OCCO2`, the “hERG current change (%, negative = inhibition) at 1uM” value was 9.03%.
Turning to `COc1ccc(CCCc2n[nH]c(=S)o2)c(C)c1`, the “hERG current change (%, negative = inhibition) at 1uM” value is 13.4%.
The value for `CC(=O)C1C(=O)c2c(cccc2[N+](=O)[O-])C1=Nc1ccc(S(N)(=O)=O)cc1` (stereo not drawn) was 10.7%; that for `Cl.c1cncc(CNC2CCCCC2)c1` was 17.2%.
As for `CN1CCN(CCC(=O)Nc2ccc(Br)cc2)CC1`, the “hERG current change (%, negative = inhibition) at 1uM” value is on record as 2.21%.
The value for `CC(C)N1CCc2c(sc(NC(=O)c3ccc(S(=O)(=O)N4CCCCC4C)cc3)c2C(N)=O)C1` (stereo not drawn) was -3.28%; that for `CCOC(=O)c1cnc(SCC(=O)OC)nc1N` was 20.2%.
The value for `CN(C)c1ccc(/C=C(/NC(=O)c2ccccc2)C(=O)N2CCCC2)cc1` was 11.4%.
Take `O=C(O)c1cccc(S(=O)(=O)Nc2ccccc2C(=O)NCCc2ccccc2)c1`: the “hERG current change (%, negative = inhibition) at 1uM” value is 9.88%.
In the case of `COc1ccc(C(=O)NC(=S)Nc2ccc(S(=O)(=O)Nc3cc(OC)ncn3)cc2)cc1`, the “hERG current change (%, negative = inhibition) at 1uM” value came to 14.2%.
On to `O=C(Nc1ccc(OCc2ccccc2)cc1)c1cccnc1`, for which the “hERG current change (%, negative = inhibition) at 1uM” value amounted to 13.6%.
As for `Cc1c(N=c2c(=O)c3ccccc3c2=O)c(=O)n(-c2ccccc2)n1C`, the “hERG current change (%, negative = inhibition) at 1uM” value is recorded as 0.192%.
Take `COc1ccc(S(=O)(=O)NCCCCOc2ccc(Cl)cc2)cc1`: the “hERG current change (%, negative = inhibition) at 1uM” value was 14.1%.
On to `CC(=O)Nc1ccc(S(=O)(=O)N2c3ccccc3C(C)=CC2(C)C)cc1`, for which the “hERG current change (%, negative = inhibition) at 1uM” value is 0.665%.
With `O=C(N/C=C\n1cnc2cc(C(F)(F)F)ccc21)c1ccc([N+](=O)[O-])cc1`, the “hERG current change (%, negative = inhibition) at 1uM” value was 4.98%.
Consider `CCN(CC)CCN(C(=O)CN1C(=O)c2ccccc2C1=O)c1nc2cc3c(cc2s1)OCO3.Cl`, for which the “hERG current change (%, negative = inhibition) at 1uM” value is -7.4%.
Regarding `CCCc1[nH]nc2c1C(c1ccccc1OC)C(C#N)=C(N)O2` (stereo not drawn), the “hERG current change (%, negative = inhibition) at 1uM” value came to 11.9%.
Turning to `Cc1ccc(NC(=O)c2c([N+](=O)[O-])cnn2C)cc1C`, the “hERG current change (%, negative = inhibition) at 1uM” value is 11%.
The value for `N#Cc1cccc(N=Cc2c(O)ccc3ccccc23)c1` was 12.6%; that for `Cc1cccc(NC(=O)CN2CCc3cc4c(cc3C2)OCCCO4)c1` was 25%.
Regarding `CCC1CCC(C(=O)NC(CCSC)C(=O)NCCc2ccc(S(N)(=O)=O)cc2)CC1` (stereo not drawn), the “hERG current change (%, negative = inhibition) at 1uM” value was found to be 9.17%.
Next, `CC1C[N+](=C2C=C(N3CCOCC3)CC(C)(C)C2)CC(C)O1.[I-]` (stereo not drawn): 12.3%.
For the molecule `Cc1ccc(S(=O)(=O)N2CCCC2CNC(=O)c2ccc3c(c2)OCO3)cc1` (stereo not drawn), the “hERG current change (%, negative = inhibition) at 1uM” value is 11.4%.
With `CCOC(=O)Oc1ccc2c(=O)c(Oc3cccc(C)c3)coc2c1`, the “hERG current change (%, negative = inhibition) at 1uM” value stood at 9.94%.
As to `CCOC(=O)N1CCN(C(=O)CSc2ccc3nnc(-c4cccnc4)n3n2)CC1`, the “hERG current change (%, negative = inhibition) at 1uM” value was 8.51%.
Next, `O=C(c1ccco1)N1CCN(S(=O)(=O)c2ccc(S(=O)(=O)NC3CC3)cc2)CC1`: 6.25%; `Cc1ccc2c(c1)C(=O)CCN2`: -3.47%; `COc1ccc(CNC(=O)COC(=O)/C=C/c2ccc(S(=O)(=O)N3CCOCC3)cc2)cc1`: 12.3%.
As to `O=C(CCNC(=O)c1ccc([N+](=O)[O-])cc1)NCCCN1CCCC1=O`, the “hERG current change (%, negative = inhibition) at 1uM” value was determined as 14.7%.
Next, `COc1ccc(CC2(CO)CCN(C(C)COc3ccccc3)CC2)cc1` (stereo not drawn): -68.4%; `CC1Cc2ccccc2N1CC(=O)NCc1ccccc1Cl` (stereo not drawn): 8.38%.
On to `C/C(CC(C)C)=N\Oc1nc(C)cc(C)n1`, for which the “hERG current change (%, negative = inhibition) at 1uM” value turned out to be 23%.
Regarding `COc1ccc2ccccc2c1/C=N/NC(=S)Nc1cc(S(=O)(=O)N2CCOCC2)ccc1N1CCOCC1`, the “hERG current change (%, negative = inhibition) at 1uM” value was found to be 17.8%.
Next, `COc1ccc(S(=O)(=O)N2CCCC2=O)cc1N(C)S(C)(=O)=O`: 15.4%; `O=C(CN1CCN(c2ccc(F)cc2)CC1)Nc1ccc(-n2cnnn2)cc1`: 8.42%.
Take `Cc1ccc2c(c1)=C(c1sc(N(C)c3ccc(O)cc3)nc1O)C(=O)N=2`: the “hERG current change (%, negative = inhibition) at 1uM” value amounted to 14.6%.
As for `COc1ccc(CCOC(=O)c2ccc(NC(=O)CC#N)cc2)cc1`, the “hERG current change (%, negative = inhibition) at 1uM” value was found to be 14.1%.
For `Cn1nnnc1SCCNC(=O)C1CCC(=O)N(Cc2ccc(Cl)cc2)C1` (stereo not drawn), the “hERG current change (%, negative = inhibition) at 1uM” value is listed as -0.925%.
As for `Cc1ccc(-n2c(=O)c3cc4c(=O)n(-c5ccc(C)c(C)c5)c(=O)c4c(C(=O)c4ccc(C(=O)O)cc4)c3c2=O)cc1C`, the “hERG current change (%, negative = inhibition) at 1uM” value is 20.4%.
On to `c1ccc(-n2nnnc2-c2cnc(-c3cccnc3)nc2-c2cccs2)cc1`, for which the “hERG current change (%, negative = inhibition) at 1uM” value was 11.9%.
Next, `COc1ccc(NC(=S)NNC(=O)COc2ccc(Cl)cc2Cl)cc1`: 7.15%; `COC(=O)C1=CN(C2CC2)C=C(C(=O)OC)C1c1ccc(C(F)(F)F)cc1`: 1.15%; `O=C(CCCc1ccccc1)Nc1ccc(S(=O)(=O)N2CCOCC2)cc1`: -1.23%.
Next, `COc1ccc(Cc2nnc(NS(=O)(=O)c3ccc(Cl)cc3)s2)cc1OC`: 9.24%; `CSc1ccc(CCNC(=O)c2ccc(CS(=O)Cc3ccc(Cl)cc3)o2)cc1` (stereo not drawn): -1.08%.
For the molecule `COc1ccc(-c2nc3c4ccccc4[nH]c(=O)n3n2)cc1`, the “hERG current change (%, negative = inhibition) at 1uM” value is on record as 11.3%.
For `Brc1ccc2c(c1)C(OC1CN3CCC1CC3)c1ccccc1CS2.O=C(O)/C=C\C(=O)O` (stereo not drawn), the “hERG current change (%, negative = inhibition) at 1uM” value is -27.6%.
Next, `O=c1cnnc(NCc2ccccc2)[nH]1`: 15.8%.
For the molecule `CCOC(=O)c1[nH]c2ccc(OC)cc2c1NC(=O)NC(C)C`, the “hERG current change (%, negative = inhibition) at 1uM” value is 13%.
Next, `CCOC(=O)c1cn(Cc2ccccc2)c2cc(C)nn2c1=O`: 9.39%.
Next, `CC(C)CNC(=O)c1c(N)n(Cc2ccc3c(c2)OCO3)c2nc3ccccc3nc12`: 9.52%; `CCCCCC(=O)NNC(=O)Nc1ccccc1`: 8.85%.
For `Cc1ccc(S(=O)(=O)NC(C)(C)C)cc1C(=O)OCC(=O)N1CCCC1=O`, the “hERG current change (%, negative = inhibition) at 1uM” value was -1.6%.
As for `O=C(O)c1ccc(N2CCCS2(=O)=O)cc1`, the “hERG current change (%, negative = inhibition) at 1uM” value is 16.5%.
`COc1ccccc1-c1ccc(Nc2cccc(C(C)=O)c2)nn1`: the “hERG current change (%, negative = inhibition) at 1uM” value turned out to be 6.05%.
`O=C(c1cc2nc(-c3cccs3)cc(C(F)(F)F)n2n1)N1CCCc2ccccc21`: the “hERG current change (%, negative = inhibition) at 1uM” value came out at 10.3%.
The value for `CCC(=O)N1CCN(c2ccccc2NC(=O)c2cccs2)CC1` was -10.1%.
